{"source": "PubChem BioAssay AID488969", "about": "(Vanderbilt High Throughput Screening Facility, 2010)", "note": "Whole data set: some 110,000 compounds, median “z-score” near -0.1, cut for the highest 2% near 2. Some of the results follow."}
{"target": "Metabotropic glutamate receptor 8 (Rattus norvegicus) (UniProt P70579)", "sequence (P70579 whole entry, looked up)": "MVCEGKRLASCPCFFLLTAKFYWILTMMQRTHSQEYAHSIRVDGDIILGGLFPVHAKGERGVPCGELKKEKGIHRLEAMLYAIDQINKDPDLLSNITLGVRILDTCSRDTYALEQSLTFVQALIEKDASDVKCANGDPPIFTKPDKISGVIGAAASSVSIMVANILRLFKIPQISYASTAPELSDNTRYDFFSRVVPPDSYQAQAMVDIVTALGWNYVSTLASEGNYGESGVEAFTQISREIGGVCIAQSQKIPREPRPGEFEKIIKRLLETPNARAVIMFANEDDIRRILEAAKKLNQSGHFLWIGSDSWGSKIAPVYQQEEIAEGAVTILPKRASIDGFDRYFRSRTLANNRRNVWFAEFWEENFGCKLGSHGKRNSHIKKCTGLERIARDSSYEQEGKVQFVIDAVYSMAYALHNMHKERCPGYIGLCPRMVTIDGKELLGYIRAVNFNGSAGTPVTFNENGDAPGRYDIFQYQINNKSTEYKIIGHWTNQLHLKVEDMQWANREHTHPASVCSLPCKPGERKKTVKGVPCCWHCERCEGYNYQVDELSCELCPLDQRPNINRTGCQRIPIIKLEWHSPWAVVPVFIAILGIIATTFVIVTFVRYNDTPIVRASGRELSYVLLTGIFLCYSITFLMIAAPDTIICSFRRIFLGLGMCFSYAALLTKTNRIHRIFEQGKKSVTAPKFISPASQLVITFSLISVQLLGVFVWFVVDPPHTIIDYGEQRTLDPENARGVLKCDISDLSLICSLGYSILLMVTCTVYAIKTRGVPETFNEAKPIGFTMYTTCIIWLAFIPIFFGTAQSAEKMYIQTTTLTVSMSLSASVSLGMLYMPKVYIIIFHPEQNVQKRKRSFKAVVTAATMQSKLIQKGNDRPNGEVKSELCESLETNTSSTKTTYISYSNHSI", "assay": "mGluR8 Gi/Go-coupled signaling modulation – cell-based, rat, thallium flux, HTS, primary screen (AID 488969)", "details": "HEK293 rat mGluR8, GIRK (G protein-gated inwardly rectifying potassium channel) thallium flux, FluoZin2; at 10 µM; stronger effect = higher value; submaximal glutamate (EC20) added with thallium"}
{"compound": "C/C(=N\\NC(=O)c1ccccc1C)c1cccc([N+](=O)[O-])c1", "z-score": -0.192}
{"compound": "O=C(c1ccc(F)cc1)N1CCC(N2CCOCC2)CC1", "z-score": 0.111}
{"compound": "CCc1c(OC(C)=O)c2ccccc2n(C)c1=O", "z-score": -0.868}
{"compound": "O=C(CSc1n[nH]c(C2CCCC2)n1)NC1CCCC1", "z-score": 0.823}
{"compound": "O=C(COC(=O)c1cccc2ccccc12)Nc1ncc(C(F)(F)F)cc1Cl", "z-score": 0.271}
{"compound": "CCSc1ncnc2sc(C)c(C)c12", "z-score": -0.112}
{"compound": "Cc1noc(C(=O)Nc2c(C)nn(Cc3ccccc3)c2C)c1Cl", "z-score": -0.922}
{"compound": "CCOc1ccc(NC(=S)N2CCC(N(C)CCN3CCOCC3)CC2)cc1", "z-score": -0.0503}
{"compound": "COC(=O)c1ccccc1NC(=O)CSc1nnc(C(C)NC(=O)c2ccc(Cl)cc2Cl)n1C", "note": "(configuration not stated)", "z-score": -0.955}
{"compound": "COc1ccc(OC)c(C(=O)CSc2nnc(-c3ccc(OC)c(OC)c3)o2)c1", "z-score": -0.145}
{"compound": "Cn1c(CO)c(-c2ccccc2)c2cc([N+](=O)[O-])ccc21", "z-score": -0.621}
{"compound": "Nc1cccc(-c2nc3ccccc3s2)c1", "z-score": -0.176}
{"compound": "CC(C)(C)NCC(O)COCc1ccc(Cl)cc1", "note": "(configuration not stated)", "z-score": -0.278}
{"compound": "Cc1cc(C(=O)COC(=O)Cc2n[nH]c(=O)c3ccccc23)c(C)n1-c1ccc2c(c1)OCO2", "z-score": -1.33}
{"compound": "COc1ccc(S(=O)(=O)Nc2ccc3c(c2)OCO3)cc1Cl", "z-score": 0.238}
{"compound": "Cc1ccc(-c2nc3cnccn3c2Nc2ccccc2)o1", "z-score": -0.467}
{"compound": "O=C(Nc1ccccc1)Nc1cccc2cccnc12", "z-score": -0.499}
{"compound": "Cn1c(=O)c2c(nc(SCC(=O)NCc3ccc4c(c3)OCO4)n2Cc2ccc(F)cc2)n(C)c1=O", "z-score": 0.172}
{"compound": "COc1ccccc1CC(=O)NC1CC(C)(C)NC(C)(C)C1", "z-score": 1.1}
{"compound": "c1ccc(OCc2nc(-c3ccccc3)no2)cc1", "z-score": 0.568}
{"compound": "O=C(CSc1ccc(C(F)(F)F)cc1[N+](=O)[O-])Nc1ccccc1", "z-score": 1.52}
{"compound": "CC1Cc2ccccc2N1C(=O)CSc1nc(-c2ccco2)cc(C(F)(F)F)n1", "note": "(configuration not stated)", "z-score": -0.351}
{"compound": "CC(C)(C)C(=O)NC(NC(=S)Nc1ccc(S(N)(=O)=O)cc1)C(Cl)(Cl)Cl", "note": "(configuration not stated)", "z-score": -0.298}
{"compound": "COc1ccc(C2C3=C(CCCC3=O)Nc3nc(SCc4ccc(C(=O)O)cc4)nn32)cc1OC", "note": "(configuration not stated)", "z-score": 0.221}
{"compound": "Nc1nc2c(F)cccc2s1", "z-score": -0.0918}
{"compound": "O=C1CCCc2c1sc1nc3n(c(=O)c21)CCCCC3", "z-score": -0.0924}
{"compound": "CCC(Oc1cc(Cl)ccc1Cl)C(=O)NN1C(=O)C2C3CCC(C3=C(C)C)C2C1=O", "note": "(configuration not stated)", "z-score": -0.284}
{"compound": "Cc1ccccc1N(C(=O)Cc1ccsc1)C(C(=O)NC1CCCCC1)c1ccc(F)cc1", "note": "(configuration not stated)", "z-score": -0.419}
{"compound": "Cc1cc(C(=O)COC(=O)CNS(=O)(=O)c2ccc3ccccc3c2)c(C)n1-c1ccccc1", "z-score": -0.132}
{"compound": "CCOC(=O)C1CCCN(C(=O)CS(=O)(=O)Cc2ccccc2)C1", "note": "(configuration not stated)", "z-score": 0.403}
{"compound": "COc1ccc(/C=N/NC(=O)c2ccn[nH]2)cc1COc1ccc(F)cc1", "z-score": -0.228}
{"compound": "COC(=O)CCP(=O)(O)Cc1ccccc1CP(=O)(O)CCC(=O)OC", "z-score": 0.00641}
{"compound": "c1ccc(-c2cn3nc4c(nc3n2)CCCC4)cc1", "z-score": 0.758}
{"compound": "Fc1ccc(CNc2nc3ccccc3n3cnnc23)cc1", "z-score": -0.283}
{"compound": "COc1ccc(OC)c(NC(=O)CCn2cccc2)c1", "z-score": -0.233}
{"compound": "CC1CCCN(CC(O)COCC2COc3ccccc3O2)C1", "note": "(configuration not stated)", "z-score": 0.163}
{"compound": "COc1ccc(CC(=O)N2CCCC(C)C2)cc1", "note": "(configuration not stated)", "z-score": -0.338}
{"compound": "O=C(C[n+]1cc(-c2ccc(Cl)c(Cl)c2)n2c1CCC2)N1c2ccccc2Sc2ccccc21", "z-score": -0.605}
{"compound": "C=C(C)CSc1nnc([C@@H](NC(=O)OC(C)(C)C)C(C)CC)o1", "note": "(some centres not stated)", "z-score": -0.0912}
{"compound": "COc1cc2c(cc1NC(=O)CSc1nc3cc(Cl)ccc3s1)oc1ccccc12", "z-score": -0.383}
{"compound": "Cc1ccccc1OCC(=O)NNC(=S)NC(=O)c1ccccc1[N+](=O)[O-]", "z-score": -0.148}
{"compound": "CC(C)c1nnc(NC(=O)CCC(=O)NCc2cccs2)s1", "z-score": -0.0359}
{"compound": "CCOc1ccc(CNC(=O)NS(=O)(=O)c2ccc(OC)cc2)cc1", "z-score": 0.511}
{"compound": "O=C(NNC(=S)NC(=O)c1cccs1)c1ccc(NC(=O)c2ccccc2)cc1", "z-score": -0.0903}
{"compound": "CCOC(=O)C1=NN(c2ccc(OC)cc2)C(c2ccccc2)CC1=O", "note": "(configuration not stated)", "z-score": -2.34}
{"compound": "Cc1ccc(CNc2nc(C)nc3sc4c(c23)CCC4)cc1", "z-score": 0.156}
{"compound": "CCOC(=O)CSc1nnc(-c2ccc(OC)cc2OC)o1", "z-score": 0.342}
{"compound": "CNc1sc(C(=O)c2ccc(F)cc2)c(N)c1-c1nc2ccccc2s1", "z-score": 0.1}
{"compound": "CN(Cc1ccccc1)S(=O)(=O)c1ccc(NS(C)(=O)=O)cc1", "z-score": 0.806}
{"compound": "O=S(=O)(c1ccccc1)c1cnc(-c2cccnc2)nc1-c1ccccc1", "z-score": 0.0723}
{"compound": "CCNC(=S)NNC(=O)Nc1ccccc1", "z-score": -0.442}
{"compound": "CCc1nnc(NS(=O)(=O)c2ccc(N=Cc3c(C)[nH]n(-c4ccc(C)cc4)c3=O)cc2)s1", "z-score": -0.494}
{"compound": "CCOC(=O)Cc1csc(NS(C)(=O)=O)n1", "z-score": -0.052}
{"compound": "CCOC(=O)c1[nH]c2ccccc2c1NC(=O)CN(C)C", "z-score": 0.0703}
{"compound": "O=C(CNC(=O)c1ccccc1)NC1(C(=O)NC2CCCC2)CCCCC1", "z-score": 0.0493}
{"compound": "Cc1ccc(N2CCCn3c2cc(C)c(C#N)c3=O)cc1C", "z-score": -2.07}
{"compound": "Cc1ccc(CSC2=Nc3ccccc3C3=NC(CC(=O)NCc4ccco4)C(=O)N23)cc1", "note": "(configuration not stated)", "z-score": -0.0671}
